The campaign covered roughly 39,000 compounds. About 220 (0.56%) showed activity. The list shows a part of the results.
system: Escherichia coli K-12 BW25113; experiment: relative growth (OD600 normalised to plate interquartile mean) (fraction); higher = less growth inhibition, active = 0.2 or less; conditions: 50 µM; LB; incubation time: overnight (16-24 h)
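Also: static incubation at 37 °C against the wild-type strain, values averaged over two biological replicates.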

Row | SMILES | relative growth
1 | C[C@@H]1CCCCO[C@@H](CN(C)C(=O)Nc2ccc3c(c2)OCO3)[C@@H](C)CN([C@@H](C)CO)C(=O)c2cc(NS(=O)(=O)c3ccccc3)ccc2O1 | inactive: 1.01
2 | C[C@H]1O[C@@H](OC[C@H]2O[C@@H](Oc3c(-c4ccc(O)c(O)c4)oc4cc(O)cc(O)c4c3=O)[C@@H](O)[C@@H](O)[C@@H]2O)[C@@H](O)[C@@H](O)[C@@H]1O | inactive: 1.02
3 | CC(C)NC(=O)N(C)C[C@@H]1Oc2c(NS(=O)(=O)c3ccccc3)cccc2C(=O)N([C@H](C)CO)C[C@H]1C | inactive: 1.02
4 | C[C@@H]1CN([C@H](C)CO)C(=O)c2cc(NS(=O)(=O)c3cccs3)ccc2O[C@H]1CN(C)Cc1ccc(-c2ccccc2)cc1 | inactive: 0.997
5 | COc1cccc(NC(=O)N(C)C[C@@H]2Oc3cc(C#CC4(O)CCCC4)ccc3S(=O)(=O)N([C@H](C)CO)C[C@H]2C)c1 | inactive: 1
6 | C[C@H]1CN([C@@H](C)CO)C(=O)c2cccc(NC(=O)c3nc4ccccc4s3)c2O[C@H]1CN(C)C(=O)Nc1cccc2ccccc12 | inactive: 1.02
7 | CC(C)NC(=O)N(C)C[C@H]1Oc2ccc(NS(=O)(=O)c3ccc(F)cc3)cc2CC(=O)N([C@@H](C)CO)C[C@H]1C | inactive: 1.01
8 | Cc1ccc(S(=O)(=O)Nc2ccc3c(c2)C(=O)N([C@@H](C)CO)C[C@@H](C)[C@@H](CN(C)C(=O)Nc2ccc(F)cc2)OCCCC[C@@H](C)O3)cc1 | inactive: 1.03
9 | C[C@@H]1CN([C@@H](C)CO)C(=O)c2cc(NC(=O)C3CCCCC3)ccc2O[C@@H](C)CCCCO[C@@H]1CN(C)Cc1ccc(C(=O)O)cc1 | inactive: 0.989
10 | COCC(=O)Nc1ccc2c(c1)OC[C@H](C)N(Cc1ccccc1OC)C[C@H](C)[C@H](OC)CN(C)C2=O | inactive: 1.02
11 | C[C@@H]1CN([C@@H](C)CO)S(=O)(=O)c2ccc(-c3cccc(C#N)c3)cc2O[C@H]1CN(C)C(=O)c1cccnc1 | inactive: 0.954
12 | Cc1noc(C)c1NC(=O)Nc1ccc2c(c1)C(=O)N([C@@H](C)CO)C[C@H](C)[C@@H](CN(C)C(=O)Nc1ccc(C(F)(F)F)cc1)O2 | inactive: 0.952
13 | C[C@H]1CN([C@@H](C)CO)C(=O)c2cc(NC(=O)Cc3ccccc3)ccc2O[C@@H]1CN(C)C(=O)Nc1ccc(C(F)(F)F)cc1 | inactive: 0.991
14 | O=C(O)[C@H]1Cc2ccccc2CN1 | inactive: 1
15 | C[C@H]1CN([C@@H](C)CO)C(=O)Cc2cc(NC(=O)Nc3ccc(C(F)(F)F)cc3)ccc2O[C@H]1CN(C)Cc1ccc(C(=O)Nc2ccccc2N)cc1 | inactive: 1.04
16 | C[C@H]1CN([C@@H](C)CO)C(=O)c2cc(NC(=O)CCN3CCOCC3)ccc2O[C@H]1CN(C)C(=O)NC1CCCCC1 | inactive: 0.98
17 | C[C@H](CO)N1C[C@H](C)[C@H](CN(C)Cc2ccc(-c3ccccc3)cc2)Oc2ccc(NC(=O)CCC(F)(F)F)cc2C1=O | inactive: 1.02
18 | O=C(CS)NCCCCCNC(=O)[C@@H]1C[C@@H]2C(=O)NCC(=O)N2[C@@H]1c1cccc(OCCO)c1 | inactive: 0.982
19 | COc1ccc(CN(C)C[C@@H]2Oc3ccc(NS(C)(=O)=O)cc3C(=O)N([C@H](C)CO)C[C@@H]2C)cc1 | inactive: 1
20 | C[C@H]1CN([C@@H](C)CO)C(=O)c2ccccc2-c2ccccc2CO[C@@H]1CN(C)C(=O)Nc1ccc(-c2ccccc2)cc1 | inactive: 1.01

Row | SMILES | relative growth
21 | COc1ccc(-c2cnc3c(c2)C(=O)N([C@@H](C)CO)C[C@@H](C)[C@@H](CN(C)C(=O)Cc2ccccn2)O3)cc1 | inactive: 0.986
22 | CC(=O)OC1CC(OC(C)=O)C2(C)C(CC(O)C3(C)C2CCC2(C)C(c4ccoc4)OC(=O)C4OC423)C1(C)C (centres undefined) | inactive: 0.981
23 | C[C@H]1CCCCO[C@@H](CN(C)Cc2ccc3c(c2)OCO3)[C@@H](C)CN([C@@H](C)CO)C(=O)c2cc(NC(=O)Nc3cccc4ccccc34)ccc2O1 | inactive: 0.993
24 | O=C1c2ccncc2C(=O)N1CO | inactive: 1.02
25 | C[C@@H]1CN([C@@H](C)CO)C(=O)Cc2cc(NC(=O)C3CCCCC3)ccc2O[C@H]1CN(C)C(=O)Nc1ccc(C(F)(F)F)cc1 | inactive: 1.03
26 | C[C@H](CO)N1C[C@H](C)[C@@H](CN(C)Cc2ccc(-c3ccccc3)cc2)Oc2ccc(NC(=O)NC3CCCCC3)cc2C1=O | inactive: 0.99
27 | C[C@H]1CCCCO[C@H](CN(C)Cc2ccc3c(c2)OCO3)[C@@H](C)CN([C@@H](C)CO)C(=O)c2cc(NS(=O)(=O)c3ccc(Cl)cc3)ccc2O1 | inactive: 0.887
28 | NCCCC[C@@H]1NC(=O)[C@H]2C[C@@H](C(=O)NCc3ccc(F)cc3)[C@@H](c3cccc(OCCO)c3)N2C1=O | inactive: 1.01
29 | COc1ccccc1CN1C(=O)c2ccccc2[C@](Cc2ccccc2I)(C(=O)O)[C@@H]1c1ccc(CO)cc1 | inactive: 1.02
30 | C[C@@H]1CCCCO[C@H](CN(C)S(=O)(=O)c2cccs2)[C@H](C)CN([C@@H](C)CO)C(=O)c2cc(NC(=O)Nc3ccc(F)cc3)ccc2O1 | inactive: 1.03
31 | COc1ccc(CNC(=O)C[C@H]2C[C@@H]3c4cc(NS(=O)(=O)c5ccc(F)cc5)ccc4O[C@@H]3[C@H](CO)O2)cc1 | inactive: 0.981
32 | Cn1cnc(S(=O)(=O)N2C[C@@H](O)COC[C@@H]3O[C@@H](CC(=O)NCc4cc(F)cc(F)c4)CC[C@H]32)c1 | inactive: 1.01
33 | CC(C)NC(=O)N[C@H]1CC[C@H](CCN)O[C@@H]1CO | inactive: 0.987
34 | C[C@H](O)C#Cc1ccc2c(c1)O[C@H](CN(C)C(=O)CN(C)C)[C@@H](C)CN([C@@H](C)CO)S2(=O)=O | inactive: 1.03
35 | NCCCCCNC(=O)[C@@H]1C[C@@H]2C(=O)N[C@@H](Cc3ccccc3)C(=O)N2[C@@H]1c1cccc(OCCO)c1 | inactive: 1.01
36 | COCC#Cc1ccc2c(c1)O[C@@H](CN(C)C(=O)C1CCOCC1)[C@H](C)CN([C@H](C)CO)S2(=O)=O | inactive: 0.993
37 | CC(C)N1CC[C@H](CNCc2ccc(Oc3ccccc3)cc2)Oc2c(NC(=O)c3ccncc3)cccc2C1=O | inactive: 1.07
38 | CCC(=O)NS(=O)(=O)c1ccccc1 | inactive: 0.985
39 | COc1ccc2c3c(n(c2c1)C)[C@H](CO)N(Cc1ccccc1)C[C@]13CCN(CC1)C(=O)c1ccccc1F | inactive: 1.02
40 | COc1cc(NC(C)CCCN)c2ncccc2c1.O=P(O)(O)O.O=P(O)(O)O (centres undefined) | inactive: 0.836

Row | SMILES | relative growth
41 | C[C@H]1CN([C@@H](C)CO)C(=O)Cc2cc(NS(C)(=O)=O)ccc2O[C@H]1CN(C)C(=O)Nc1ccc(C(F)(F)F)cc1 | inactive: 0.996
42 | COC(=O)C[C@H]1CC[C@H]2[C@@H](COC[C@H](O)CN2S(=O)(=O)c2ccc(F)cc2)O1 | inactive: 0.969
43 | CN(C)CCC(c1ccc(Br)cc1)c1ccccn1.O=C(O)C=CC(=O)O (centres undefined) | inactive: 1.04
44 | C[C@H](CO)N1C[C@H](C)[C@H](CN(C)C(=O)Nc2cccc3ccccc23)Oc2ccc(NS(=O)(=O)c3ccc(Cl)cc3)cc2CC1=O | inactive: 1.01
45 | Cc1cc(C(=O)Nc2cccc3c2O[C@H](CN(C)S(=O)(=O)c2c(C)noc2C)[C@H](C)CN([C@H](C)CO)C3=O)n(C)n1 | inactive: 1.01
46 | C[C@@H]1CCCCO[C@@H](CN(C)Cc2ccccc2)[C@H](C)CN([C@@H](C)CO)C(=O)c2cc(NS(=O)(=O)c3ccc(Cl)cc3)ccc2O1 | inactive: 0.999
47 | C[C@@H]1CN([C@H](C)CO)C(=O)Cc2cc(NC(=O)Cn3cnnn3)ccc2O[C@H]1CN(C)Cc1ccc(-c2ccccc2)cc1 | inactive: 1.05
48 | Cc1ccc2nc(-c3ccc(/N=C\c4ccc[nH]4)cc3)sc2c1 | inactive: 1.03
49 | C=CCOC(=O)[C@@H]1[C@H]2C(=O)O[C@H](c3ccccc3)[C@H](c3ccccc3)N2[C@H](c2ccc(OCCOC(=O)[C@@H]3C[C@@H]4C(=O)N[C@@H](CCCCNC(C)=O)C(=O)N4[C@@H]3c3ccc(O)cc3)cc2)[C@@]12C(=O)Nc1ccc(I)cc12 | inactive: 1.03
50 | O=C(O)/C=C\C(=O)O | inactive: 0.956
51 | O=C(CS)NCCCCCNC(=O)[C@@H]1C[C@@H]2C(=O)N[C@@H](Cc3ccccc3)C(=O)N2[C@@H]1c1ccc(O)cc1 | inactive: 0.989
52 | C[C@@H]1CN([C@@H](C)CO)C(=O)c2cc(NC(=O)Nc3ccc4c(c3)OCO4)ccc2O[C@@H](C)CCCCO[C@@H]1CN(C)C(=O)Cc1ccccc1 | inactive: 1.07
53 | C[C@@H]1CN([C@H](C)CO)S(=O)(=O)c2ccc(C#Cc3ccc(F)cc3)cc2O[C@H]1CN(C)C(=O)CN(C)C | inactive: 0.998
54 | C[C@H]1CN([C@@H](C)CO)C(=O)c2cc(NC(=O)CCCCCC(=O)Nc3ccccc3N)ccc2O[C@H]1CN(C)C(=O)Nc1ccc(F)cc1 | inactive: 0.981
55 | O=C(N1CCOCC1)[C@@]1(CCS(=O)(=O)c2ccccc2)N=C(c2ccc(OCCCO)cc2)O[C@H]1c1ccccc1 | inactive: 1.01
56 | CC(C)(C)c1ccc(-c2nc3ccccc3s2)cc1 | inactive: 0.975
57 | Cc1ccccc1S(=O)(=O)N1C[C@H](O)COC[C@@H]2O[C@H](CC(=O)NCCc3ccncc3)CC[C@H]21 | inactive: 0.992
58 | COc1ccc2c3c([nH]c2c1)[C@H](CO)N(C[C@]13CN(Cc2cc(on2)-c2ccccc2)C1)C(=O)Nc1ccc(cc1)F | inactive: 1.01
59 | COCC#Cc1cnc2c(c1)C(=O)N([C@H](C)CO)C[C@@H](C)[C@H](CN(C)C(=O)CCN1CCCCC1)O2 | inactive: 1

From the supplement of paper PMC9446081
